Measurements: PubChem BioAssay AID624417 (National Center for Advancing Translational Sciences (NCATS), 2012)
In all, about 410,000 compounds went through this assay and about 6,400 (1.6%) were called active. The inconclusive results got no clear call from the source; some entries with a clear call stand among them for comparison. Calls follow the shape of the dose curve; as a rule, active = well fitted inhibition curve with a large enough effect; inconclusive = small, poorly fitted or top-dose-only effect; inactive = no such curve, though single readings can be large or run the other way. No potency is given beside an inconclusive call; the fits are too rough.

target: Glucagon-like peptide 1 receptor (Homo sapiens) (UniProt P43220); assay: qHTS of GLP-1 Receptor Inverse Agonists (Inhibition Mode); settings: HEK293 GLP-1R CRE-luciferase, luminescence, 24 h, GLP-1R form is constitutively active; activity change, negative = inhibition: at 38.3 µM (top of the series) unless noted; also: nearly all actives have a fitted effect of over 55% in size
Chain of UniProt P43220 (P43220 whole entry, looked up): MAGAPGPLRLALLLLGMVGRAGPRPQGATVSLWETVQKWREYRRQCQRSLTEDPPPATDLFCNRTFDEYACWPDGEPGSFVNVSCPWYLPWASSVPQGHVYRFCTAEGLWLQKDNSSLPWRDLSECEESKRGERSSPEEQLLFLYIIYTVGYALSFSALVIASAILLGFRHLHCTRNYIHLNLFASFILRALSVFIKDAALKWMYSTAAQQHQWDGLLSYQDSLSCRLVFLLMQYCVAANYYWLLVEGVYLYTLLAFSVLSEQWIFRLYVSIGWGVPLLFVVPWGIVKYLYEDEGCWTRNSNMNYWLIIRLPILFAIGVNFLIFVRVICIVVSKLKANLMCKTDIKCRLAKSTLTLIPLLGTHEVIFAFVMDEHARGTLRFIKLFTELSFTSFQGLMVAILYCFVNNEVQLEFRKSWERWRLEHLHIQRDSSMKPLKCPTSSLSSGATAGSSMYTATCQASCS
Summary of the method: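 Cells are plated, allowed 12 hours at 37 deg C, then treated with compounds for 24 hr before luciferase detection reagent is added and luminescence is read after 12 min at room temperature. The HEK293 line carries constitutively active GLP-1R with a cAMP-responsive reporter.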
% is scaled to controls: 0 for no effect and ±100 for the full control effect; potency is read from the fitted curve at half-maximal effect; tags tell the direction and shape of the fitted curve.

| Compound | Potency | activity change, negative = inhibition |
| --- | --- | --- |
| O=C(Cc1ccccc1)NC1CCSc2ccccc21 (stereo unspecified) | inconclusive [inhibitor, partial curve, poor fit] | – |
| Cc1ccc2[nH]c3c(c2c1)CCCC3NCCO (stereo unspecified) | active: 10 µM | – |
| Cc1ccc(CNC(=O)C2CCN(c3nc4ccc(C)cc4[nH]3)CC2)cc1 | – | inactive: -20% |
| O=Cc1ccc(-c2nc3ccccc3s2)o1 | inconclusive [inhibitor, partial curve] | – |
| COc1ccc(N2CCN(C(=O)CNC(=O)Cc3ccc(Cl)cc3)CC2)cc1 | inconclusive [inhibitor, partial curve, poor fit] | – |
| O=C1OCCN1C(=O)[C@H]1[C@H](c2ccc([N+](=O)[O-])cc2)C(c2ccc(F)cc2)=NN1c1ccccc1 | inconclusive [inhibitor, partial curve, poor fit] | – |
| Cc1cc(C(=O)OCC(=O)NCCc2ccccc2)c(C)o1 | inconclusive [inhibitor, single point] | – |
| COCCNC(=O)c1c(N)n(CCC2=CCCCC2)c2nc3ccccc3nc12 | inconclusive [inhibitor, single point] | – |
| O=C(COc1ccc(C(=O)c2ccccc2)cc1)NCC1CCCCC1 | inconclusive [inhibitor, single point] | – |
| Cc1ccc(C(=O)N2CCC(C(=O)Nc3cccc([N+](=O)[O-])c3)CC2)cc1 | inconclusive [inhibitor, partial curve, poor fit] | – |
| Cc1cc(NC(=O)CC(CN(C)S(=O)(=O)c2ccccc2)c2ccccc2)no1 (stereo unspecified) | active: 10 µM | – |
| CCCCn1c2c(c3ccccc31)CCc1nonc1-2 | inconclusive [inhibitor, single point] | – |
| Cc1nn(Cc2c(F)c(F)c(F)c(F)c2F)c(C)c1NC(=O)c1c([N+](=O)[O-])c(C)nn1C | – | inactive: 0% |
| Oc1ccccc1N1CCN(C(=S)NCCc2ccccc2)CC1 | inconclusive [inhibitor, partial curve] | – |
| CCOc1ccc(S(=O)(=O)Nc2cnc3ccccc3c2)cc1 | – | inactive: 16.4% |
| O=C(CNC(=O)c1ccccc1F)N/N=C/c1cc(Br)ccc1OCc1ccccc1 | inconclusive [inhibitor, partial curve] | – |
| CCn1cc(C(=O)OCC(=O)N(C)C2CCS(=O)(=O)C2)c(=O)c2ccc(C)nc21 (stereo unspecified) | – | inactive: 47.9% |
| CC(=O)NCCC(=O)Nc1sc2c(c1-c1nc3ccccc3[nH]1)CCCC2 | inconclusive [inhibitor, partial curve, poor fit] | – |
| COc1cccc2sc(Nc3nnc(-c4ccccc4Cl)o3)nc12 | inconclusive [inhibitor, full curve, poor fit] | – |
| COc1cc(C)ccc1Oc1ccc([N+](=O)[O-])cc1 | inconclusive [inhibitor, single point] | – |
| CN(C)CCC(Oc1ccccc1OCc1ccccc1)c1ccccc1 (stereo unspecified) | inconclusive [inhibitor, partial curve, poor fit] | – |
| CCCNC(=O)CSc1nc(COc2ccccc2)nc2ccccc12 | inconclusive [inhibitor, partial curve] | – |

| Compound | Potency | activity change, negative = inhibition |
| --- | --- | --- |
| O=C(Nc1ccncc1)c1cccc(S(=O)(=O)N2CCN(c3ccc(F)cc3)CC2)c1 | inconclusive [inhibitor, single point] | – |
| CCOc1ccc(Cl)cc1S(=O)(=O)n1cnc2ccccc21 | inconclusive [inhibitor, full curve, poor fit] | – |
| CCc1nc2c(OCC3COc4ccccc4O3)cccn2c1N(C)C(=O)c1cccc(OC)c1 (stereo unspecified) | inconclusive [inhibitor, single point] | – |
| CCN1CCN(S(=O)(=O)c2ccc(Cl)c(C(=O)NCCOc3ccc(C)cc3)c2)CC1 | inconclusive [inhibitor, partial curve, poor fit] | – |
| COc1ccccc1NC(=O)Nc1ccc2c(c1)nnn2C | – | inactive: 4.01% |
| O=C(COC(=O)c1ccc[nH]c1=O)Nc1cc(S(=O)(=O)N2CCCCC2)ccc1Cl | inconclusive [inhibitor, partial curve, poor fit] | – |
| CN1CCN(CCCN(Cc2cccs2)C(=S)Nc2ccc(Cl)cc2)CC1 | inconclusive [inhibitor, partial curve, poor fit] | – |
| O=C(NC(=S)Nc1nc2ccccc2s1)c1ccco1 | inconclusive [inhibitor, full curve, poor fit] | – |
| C=C(C)Cn1c2ccc(NC(=O)NCCc3ccccc3)cc2c(=O)n1C | inconclusive [inhibitor, single point] | – |
| CCCCNC(=S)NNC(=O)CCn1nc(C)c(Br)c1C | – | inactive: 0% |
| CC1(C)CC(=O)C=C(N=CC2=C(O)CC(C)(C)CC2=O)C1 | inconclusive [inhibitor, single point] | – |
| NNC(=O)c1cc2ccccc2cc1O | inconclusive [inhibitor, full curve, poor fit] | – |
| Cc1ccc(C)c(Nc2cc(C)nc(-c3ccccc3O)n2)c1 | inconclusive [inhibitor, partial curve, poor fit] | – |
| O=C(c1ccc2c(=O)n3c(nc2c1)CCCCC3)N1CCN(c2ccc(F)cc2)CC1 | active: 5.01 µM | – |
| CCN(CC)CCOc1ccc(-c2c(C)c3c(ccc4ccccc43)oc2=O)cc1 | inconclusive [inhibitor, single point] | – |
| COc1ccc(Nc2ncc(C(=O)Nc3cc(C)ccc3OC)c3ccccc23)cc1 | inconclusive [inhibitor, single point] | – |
| CC1CCCCN1S(=O)(=O)Cc1ccccc1Cl (stereo unspecified) | inconclusive [inhibitor, single point] | – |
| COc1ccc(N2CCN(c3oc(COc4ccc(Cl)cc4)nc3C#N)CC2)cc1 | inconclusive [inhibitor, partial curve] | – |
| COc1ccc(Cl)cc1NC(=O)CCN1C(=O)C2C3C=CC(C4CC34)C2C1=O (stereo unspecified) | inconclusive [inhibitor, single point] | – |
| Cc1nc(Cn2c3ccc(NC(=S)NC4CCCCC4)cc3c(=O)n2C)cs1 | – | inactive: -11.7% |
| O=C(COc1ccc(F)cc1)Nc1cccc(OCc2cc(=O)n3ccccc3n2)c1 | – | inactive: 3.45% |
| Cc1oc2ccc(O)cc2c1C(=O)c1ccc(Cl)cc1 | inconclusive [inhibitor, single point] | – |

| Compound | Potency | activity change, negative = inhibition |
| --- | --- | --- |
| Cc1ccc(-n2nc(C)c3c(C)cc(=O)n(CC(=O)NCc4ccc(OC(C)C)cc4)c32)cc1 | – | inactive: 0.739% |
| COC(=O)c1[nH]c2cccc(OC)c2c1NC(=O)CN1CCOCC1 | – | inactive: 2.15% |
| Cc1ccc(C)c(S(=O)(=O)N2CCCC2CNC(=O)c2ccc([N+](=O)[O-])cc2)c1 (stereo unspecified) | inconclusive [inhibitor, single point] | – |
| C[C@@]1([C@@H](NC(=O)c2cccs2)c2ccc(-c3ccccc3)cc2)C[C@H]1C1CCCCC1 | inconclusive [inhibitor, full curve] | – |
| CC(C)(CC(=O)O)CC(=O)NCc1c(Cl)cccc1Sc1ccc(Cl)cc1 | inconclusive [inhibitor, single point] | – |
| O=C(NCCc1ccccn1)c1ccc(COc2ccccc2)o1 | inconclusive [inhibitor, single point] | – |
| CCOC(=O)c1sc(Nc2ccccc2Cl)nc1C | inconclusive [inhibitor, partial curve, poor fit] | – |
| COc1cccc(C(=O)NC(c2ccc(Cl)cc2)c2cc(Cl)c3cccnc3c2O)c1 (stereo unspecified) | inconclusive [inhibitor, full curve] | – |
| O=c1cc(NCc2ccccc2)c2ccccc2o1 | inconclusive [inhibitor, full curve, poor fit] | – |
| O=C(N/N=C/c1cn(-c2ccccc2)nc1-c1cccs1)c1ccc(Cl)cc1 | active: 6.31 µM | – |
| FC(F)(F)c1ccc(C2=Nc3ccccc3NC(c3cccs3)=N2)cc1 | – | inactive: -6.51% |
| CCCn1nnc(NC(=O)COc2cc(C)ccc2C(C)C)n1 | – | inactive: 0% |
| COc1ccc(CCNC(=O)CCn2c(=O)c3ccccc3n(CC(=O)Nc3cccc(C)c3)c2=O)cc1OC | – | inactive: -16.3% |
| COc1ccccc1N1CCN(C(=O)c2cccc(S(=O)(=O)N3c4ccccc4CC3C)c2)CC1 (stereo unspecified) | inconclusive [inhibitor, single point] | – |
| CC1CCCN(C(=O)c2cc(-c3cccs3)nc3ccccc23)C1 (stereo unspecified) | inconclusive [inhibitor, single point] | – |
| O=C(NCc1ccncc1)Nc1ccc2c(c1)OCO2 | – | inactive: 8.08% |
| COc1ccc(CC2(CO)CCN(C/C=C/c3ccccc3OC)CC2)cc1 | inconclusive [inhibitor, partial curve, poor fit] | – |
| O=C(N/N=C/c1ccncc1)c1cc([N+](=O)[O-])cc([N+](=O)[O-])c1 | – | inactive: 9.14% |
| CSc1ccccc1OCc1cc(C(=O)NCCn2nc(C)cc2C)no1 | inconclusive [inhibitor, single point] | – |
| O=C(Nc1cccc(F)c1)C1CC(=O)N(c2ccc(Br)cc2)C1 (stereo unspecified) | inconclusive [inhibitor, single point] | – |
| Cc1cccc(C)c1NS(=O)(=O)c1ccc2c(c1)NC(=O)CO2 | inconclusive [inhibitor, partial curve] | – |
| CC(C)(C)c1ccc(OCC(=O)N(Cc2ccco2)Cc2ccccc2F)cc1 | inconclusive [inhibitor, single point] | – |
